The assay addresses T1, IscS, cysteine desulfurase (E. coli), dimer with PLP bound (E. coli, UniProt P0A6B7 1-404, pyridoxal phosphate (PLP) bound to each protomer).
T1 construct: IscS, cysteine desulfurase of E. coli; Made from pET-24d as a fusion with His-tagged GST and cleaved with TEV protease; also called (IscS)2; IscS dimer; source: E. coli BL21 DE3, expressed with 100 μM PLP, purified (His-Trap, TEV cleavage)
T1 sequence (looked up): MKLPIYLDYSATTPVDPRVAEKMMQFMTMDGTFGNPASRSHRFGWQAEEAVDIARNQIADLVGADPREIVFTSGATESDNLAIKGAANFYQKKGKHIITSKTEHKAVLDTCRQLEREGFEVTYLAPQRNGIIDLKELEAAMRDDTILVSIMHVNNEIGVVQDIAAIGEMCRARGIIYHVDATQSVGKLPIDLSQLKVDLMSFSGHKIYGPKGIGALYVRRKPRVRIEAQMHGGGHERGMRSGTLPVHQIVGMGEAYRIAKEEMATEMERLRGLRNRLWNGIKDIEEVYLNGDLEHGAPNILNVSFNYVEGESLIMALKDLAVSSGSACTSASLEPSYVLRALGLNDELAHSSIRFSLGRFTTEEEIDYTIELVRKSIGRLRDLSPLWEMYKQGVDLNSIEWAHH
As to the kind of experiment: native MS; IscS (8 μM) titrated with as isolated IscU, both in solution in 250 mM ammonium acetate pH 8.0; Waters Synapt XS; fractional intensities fitted (Dynafit) to a sequential binding model for 1-2 IscU per IscS dimer. The note with it: both partners purified.

B1: IscU, Fe-S cluster scaffold protein (E. coli) (natural protein, UniProt P0ACD4 1-128, looked up)
chain: MAYSEKVIDHYENPRNVGSFDNNDENVGSGMVGAPACGDVMKLQIKVNDEGIIEDARFKTYGCGSAIASSSLVTEWVKGKSLDEAQAIKNTDIAEELELPPVKIHCSILAEDAIKAAIADYKSKREAK
notes: IscU, scaffold protein of E. coli; One polypeptide used in three metal states; As isolated it holds ~0.5 Zn2+ per protein; The apo form (25-fold DTPA) holds ~0.01 Zn2+ per protein; The Zn2+-loaded form was made with 2-fold ZnSO4; Each assay's format names the state used; also called as isolated IscU; apo-IscU; source: E. coli BL21 DE3, grown with 8.3 mg per L ZnSO4, purified (His-Trap, TEV …)
Usually Kd stands for the constant that tells how readily two partners part at equilibrium. Low values mean tighter binding, high ones weaker binding. As usually defined, the stoichiometry N is the number of molecules, sites or subunits per partner or assembly. As for B1, the Kd came out at 3.26 ± 0.46 µM and the “stoichiometry N” value came out at 2 IscU per IscS dimer.

These data come from article PMC9769115, “Native mass spectrometric studies of IscSU reveal a concerted, sulfur-initiated mechanism of iron–sulfur cluster assembly†” (Chemical Science, 2022).
